From PubChem BioAssay AID602310 (National Center for Advancing Translational Sciences (NCATS), 2012)
Hit rate of the full screen: of about 410,000 compounds, about 310 (0.076%) were called active. The inconclusive results got no clear call from the source; some entries with a clear call stand among them for comparison. Calls come from the whole dose curve; as a rule, active = well fitted curve in the direction sought with a large enough effect; inconclusive = small, poorly fitted or top-dose-only effect; inactive = flat fitted curve, though single readings scatter. A potency beside an inconclusive call is a rough fit, not a confirmed value.

The molecules below were run against DNA dC->dU-editing enzyme APOBEC-3G (Homo sapiens) (UniProt Q9HC16) (assay: qHTS for Inhibitors of Vif-A3G Interactions: qHTS). Conditions: HeLa A3G-eYFP + Vif (tagged APOBEC3G with the HIV-1 protein that degrades it), YFP fluorescence, overnight; series mostly up to 46.1 µM.
In short: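 Read-out is eYFP fluorescence (Ex 488/Em 500-530) from Vif-expressing HeLa A3G-eYFP cells; more signal means A3G escaped Vif-mediated degradation. Cells plated overnight, compound pinned in, incubated overnight at 37 deg C.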
Note: nearly all actives have a fitted effect of over 60% in size.
Potency is the fitted concentration of half-maximal effect; tags give direction and shape of the fitted curve.

Chain of UniProt Q9HC16 (Q9HC16 whole entry, looked up): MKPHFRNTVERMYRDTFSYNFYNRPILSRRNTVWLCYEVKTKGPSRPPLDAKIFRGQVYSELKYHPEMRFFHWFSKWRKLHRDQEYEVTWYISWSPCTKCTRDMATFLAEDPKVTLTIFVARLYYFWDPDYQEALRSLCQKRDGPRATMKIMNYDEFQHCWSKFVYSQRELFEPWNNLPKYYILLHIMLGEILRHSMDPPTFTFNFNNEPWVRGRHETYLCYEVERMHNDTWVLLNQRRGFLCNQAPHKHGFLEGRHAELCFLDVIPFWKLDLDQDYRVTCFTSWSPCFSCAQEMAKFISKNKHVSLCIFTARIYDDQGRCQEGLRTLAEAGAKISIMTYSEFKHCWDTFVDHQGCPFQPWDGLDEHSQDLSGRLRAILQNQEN

SMILES | Potency
Nc1nc(N)c2cc(CNc3ccc(Cl)c(Cl)c3)ccc2n1 | inactive
C=C(CN(C)C)C(=O)c1cc(OC)c(OC)cc1OC | inconclusive: 17.8 µM [inhibitor, single point]
Cc1ccc(C(=O)OCn2ncc(Cl)c(Cl)c2=O)cc1 | inconclusive: 3.16 µM [inhibitor, single point]
Fc1cccc(Cc2c(-c3ccco3)nc3ccc(Br)cn23)c1 | inconclusive: 11.2 µM [inhibitor, partial curve]
Cc1c(C(=O)O)sc2nc(/C=C/c3ccccc3OC(F)F)[nH]c(=O)c12 | inactive
CN(C)c1ccc(/C=N/NC(=O)c2cc(-c3ccc4c(c3)OCO4)n[nH]2)cc1 | inconclusive: 4.47 µM [inhibitor, full curve]
COc1ccc(OC)c(C(=O)C2COC(=O)C2)c1 (centres undefined) | inconclusive: 35.5 µM [inhibitor, single point]
N#C/C(=C/c1ccc(N2CCCCCC2)o1)c1ccc(F)cc1 | inconclusive: 15.8 µM [inhibitor, partial curve, poor fit]
CC(=O)C1=C(O)C(=O)N(c2ccc(Br)cn2)C1c1ccc(Br)cc1 (centres undefined) | inconclusive: 11.2 µM [inhibitor, partial curve, poor fit]
Cc1cc(NC(=O)c2cc([N+](=O)[O-])cc([N+](=O)[O-])c2)no1 | inconclusive: 6.31 µM [inhibitor, partial curve, poor fit]
CCN1CCc2c(sc(NC(=O)Nc3ccc(Cl)c(Cl)c3)c2C(N)=O)C1 | inconclusive: 3.55 µM [inhibitor, partial curve, poor fit]
COc1cc(-c2nnc(NC(=O)CCS(=O)(=O)c3ccccc3)o2)cc(OC)c1OC | inconclusive: 35.5 µM [inhibitor, single point]
Cc1cc2oc3ccc(NCCC4CCCN4C)cc3c(=O)c2cc1C (centres undefined) | inconclusive: 25.1 µM [inhibitor, single point]
O=C(O)/C=C/C(=O)Nc1ccc(Cl)c(C(=O)O)c1 | inactive
Cc1ccc(-c2nc3cnccn3c2Nc2ccccc2)o1 | inactive
O=C(c1ccc(CS(=O)c2ccccc2Cl)o1)N1CCN(c2cccc(C(F)(F)F)c2)CC1 (centres undefined) | inconclusive: 0.355 µM [inhibitor, full curve, poor fit]
COc1cc2c3nnc(-c4ccc(F)cc4)c-3cn(Cc3cccc(F)c3)c2cc1OC | active: 7.94 µM
COCCNC(=O)c1ccccc1NC(=O)Cc1ccccc1 | inactive
O=C(NCCN1C(=O)S/C(=C\c2ccccc2Cl)C1=O)C1=COCCO1 | inconclusive: 10 µM [inhibitor, partial curve]
CC(C)c1cc2c(c(O)c1O)[C@@]13CCCC(C)(C)C1CC2OC3=O (some centres undefined) | inconclusive: 22.4 µM [inhibitor, single point]
COc1ccc(-c2oc3ccccc3c(=O)c2OCC(=O)O)cc1 | inactive
Cc1cccc(-n2c(SCC(=O)N3CC(=O)Nc4ccccc43)nc3ccccc3c2=O)c1 | inconclusive: 22.4 µM [inhibitor, partial curve, poor fit]

SMILES | Potency
CCOc1cc(/C=C2/C(=O)ON=C2C)cc(Br)c1O | inactive
C(=C\c1ccco1)/C1=NN(c2ccccc2)C(c2ccco2)C1 (centres undefined) | inconclusive: 20 µM [inhibitor, single point]
Cc1nc2ccn(Cc3cccs3)c(=O)c2cc1C(=O)Nc1ccccc1 | inconclusive: 17.8 µM [inhibitor, partial curve, poor fit]
COc1ccc(-n2c(O)c(/C=N/NS(=O)(=O)c3cc(C)ccc3C)c3ccccc3c2=O)cc1OC | inactive
Cc1ccc(S(=O)(=O)Nc2cccc3ccccc23)cc1 | inconclusive: 25.1 µM [inhibitor, single point]
Cn1cc([N+](=O)[O-])c(C(=O)Nc2sc3c(c2C#N)CCC3)n1 | inconclusive: 7.08 µM [inhibitor, partial curve]
Cc1c(C(=O)Nc2nccs2)sc2nc(-c3cccs3)cc(C(F)(F)F)c12 | inactive
CC(NC(=O)CCCCCNC(=O)N1CCn2c1nc1ccccc12)c1ccccc1 (centres undefined) | inactive
Clc1ccc(-n2nnnc2Sc2ncnc3sccc23)cc1 | inconclusive: 10 µM [inhibitor, partial curve]
CSc1nc2ccccc2cc1/C=C(\C#N)c1cccc(Cl)c1 | inconclusive: 4.47 µM [inhibitor, full curve]
CC(=O)NC(c1cc(Cl)c2cccnc2c1O)C1CC1 (centres undefined) | active: 5.01 µM
O=C(CC1CCCCC1)N1CCCC(c2nc(-c3ccc(S(=O)(=O)N4CCCC4)cc3)no2)C1 (centres undefined) | inactive
CSc1ccc(C(=O)C2CCCN(C(=O)CCc3c(C)nn(C)c3C)C2)cc1 (centres undefined) | inactive
CCOc1ccccc1NC(=O)c1cnn2c(C(F)F)cc(-c3ccccc3)nc12 | inconclusive: 3.55 µM [inhibitor, full curve, poor fit]
Nc1ccccc1C=C1Cc2ccccc2C1=O | inconclusive: 12.6 µM [inhibitor, partial curve, poor fit]
CCc1nnc(NC(=O)C2=CCN(S(=O)(=O)c3ccc(F)cc3)CC2)s1 | inconclusive: 22.4 µM [inhibitor, single point]
Cc1ccc2cc3c(N)c(C(=O)Nc4c(C)[nH]c(=O)[nH]c4=O)sc3nc2c1 | inconclusive: 35.5 µM [inhibitor, single point]
COc1ccc(-n2nnnc2S(=O)(=O)CC(=O)N2CCCCC2)cc1 | inconclusive: 22.4 µM [inhibitor, single point]
C=C1C(=O)OC2C1C(OC(=O)C(C)=CC)CC(=C)C1C(O)C3OC3(C)C21O (centres undefined) | inconclusive: 35.5 µM [inhibitor, single point]
COc1cc(C(C[N+](=O)[O-])c2c(C)cc3ccccn23)ccc1O (centres undefined) | inconclusive: 35.5 µM [inhibitor, single point]
c1ccc(SCc2nc3ccccc3s2)nc1 | inactive
CCOC(=O)c1cc(-c2ccccc2)sc1NC(=O)C(C)N1C(=O)c2ccccc2C1=O (centres undefined) | inactive
